{"source": "PubChem BioAssay AID686979", "about": "(National Center for Advancing Translational Sciences (NCATS), 2013)", "note": "Among all 420,000 compounds or so, about 50,000 (12%) were called active. Inconclusive results, whose numbers are uncertain, are shown with a selection of clear calls. The call rests on the fitted dose curve; in most records, active means well fitted inhibition curve with a large enough effect; inconclusive means small, poorly fitted or top-dose-only effect; inactive means flat fitted curve, though single readings scatter. No potency is given beside an inconclusive call; the fits are too rough. On the % scale 0 is the no-effect control and ±100 the full control effect; potency means the concentration at half of the fitted maximal effect; tags describe the fitted curve by direction and shape.", "data": [{"test": "qHTS for Inhibitors of human tyrosyl-DNA phosphodiesterase 1 (TDP1): qHTS in cells in presence of CPT; further: nearly all actives have a fitted effect of over 55% in size", "details": "chicken DT40 Tdp1-/-;hTDP1 cells + 20 nM CPT, ATP luminescence, 48 h; activity change, negative = growth inhibition: at 46.2 µM (top of the series) unless noted", "summary_of_the_method": "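Chicken DT40 Tdp1-/- cells complemented with human TDP1, 400 cells/well, exposed to compounds plus 20 nM camptothecin for at least 48 h at 37 C; viability read as ATP content by CellTiter-Glo luminescence.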", "values": [{"smiles": "COc1ccccc1N1CCN(C(CNS(=O)(=O)c2cccs2)c2cccnc2)CC1", "note": "(configuration not stated)", "Potency": "inconclusive [inhibitor, single point]"}, {"smiles": "[O-][n+]1onc2c1CCc1[nH]c(-c3ccccc3)nc1-2", "Potency": "inconclusive [inhibitor, single point]"}, {"smiles": "CC(=O)c1ccc(Oc2ncnc3sccc23)cc1", "activity change, negative = growth inhibition": "inactive: 5.99%"}, {"smiles": "CCC(=O)Nc1ccc(S(=O)(=O)c2ccc(NC(=O)CC)cc2)cc1", "Potency": "inconclusive [inhibitor, partial curve]"}, {"smiles": "Cc1ccc(NS(=O)(=O)c2ccc(C)c(C(=O)NCC(c3ccccc3)N(C)C)c2)cc1", "note": "(configuration not stated)", "Potency": "inconclusive [inhibitor, single point]"}, {"smiles": "Cc1ccc(S(=O)(=O)N2CCC[C@H]2C(=O)Nc2ccc(F)cc2C)cc1", "Potency": "inconclusive [inhibitor, partial curve, poor fit]"}, {"smiles": "O=S(=O)(Nc1nccs1)c1ccc(F)cc1", "activity change, negative = growth inhibition": "inactive: 1.69%"}, {"smiles": "COCCNC(=O)[C@@]1(C)C=C[C@@H](Cc2ccccc2)N1C(=O)c1ccccc1", "Potency": "inconclusive [inhibitor, single point]"}, {"smiles": "COc1cc2c(cc1NC(=S)Nc1ccccc1C)oc1ccccc12", "Potency": "inconclusive [inhibitor, single point]"}, {"smiles": "CSc1ncccc1C(=O)N1CCCC(N2CCN(c3ccccc3C)CC2)C1", "note": "(configuration not stated)", "Potency": "active: 16.4 µM"}, {"smiles": "COc1ccc(C(CNC(=O)c2ccc(C)c(S(=O)(=O)N3CCCCC3)c2)N2CCCC2)cc1", "note": "(configuration not stated)", "Potency": "inconclusive [inhibitor, single point]"}, {"smiles": "O=C(NCCN1C(=O)S/C(=C\\c2ccccc2Cl)C1=O)C1=COCCO1", "Potency": "active: 7.31 µM"}, {"smiles": "O=C(NCCCN1CCN(c2ccccc2F)CC1)C1COc2ccccc2C1", "note": "(configuration not stated)", "Potency": "active: 25.9 µM"}, {"smiles": "COCCOc1cc(-n2ccnc2SC)c(Cl)cc1Cl", "Potency": "inconclusive [inhibitor, single point]"}, {"smiles": "Cc1ccc(Nc2nc(Nc3ccc(Cl)cc3)nc(N3CCOCC3)n2)cc1", "Potency": "active: 11.2 µM"}, {"smiles": "C/C=C(\\C)CN1CCC(Oc2cc(C(=O)NC3CC3)ccc2OC)CC1", "activity change, negative = growth inhibition": "inactive: 12.4%"}, {"smiles": "Cc1ccc(C)c(CC(=O)N2CCCC(c3cc(C(=O)NCc4ccccc4)no3)C2)c1", "note": "(configuration not stated)", "Potency": "inconclusive [inhibitor, partial curve]"}, {"smiles": "COc1cccc(-c2nc(CCl)cs2)c1OC", "Potency": "active: 2.31 µM"}, {"smiles": "COc1ccc2c(c1)C1(Nc3ccccc3-c3nc4ccccc4n31)C(=O)N2", "note": "(configuration not stated)", "activity change, negative = growth inhibition": "inactive: -27.2%"}, {"smiles": "COc1cc(CN2CCOc3ccc(CN4CCC(O)(c5cccnc5)CC4)cc3C2)cc(OC)c1", "activity change, negative = growth inhibition": "inactive: 5.82% [at 9.04 µM]"}, {"smiles": "O=[N+]([O-])c1cccc(/C([O-])=C(/C(=S)Nc2ccccc2)[n+]2ccccc2)c1", "activity change, negative = growth inhibition": "inactive: -26.5%"}, {"smiles": "Cc1c(OCC(=O)C(C)(C)C)ccc2c3c(c(=O)oc12)CCCC3", "Potency": "inconclusive [inhibitor, single point]"}]}]}
